44 sequences from the supplement of paper PMC11417369 can be followed below.

The other results are listed elsewhere or left out.

For the experiment, the system named is PfHDP1 homeodomain (GST-tagged). In words: gcPBM binding intensity (ln(normalized median fluorescence intensity)); higher = stronger DNA binding. The method, boiled down: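 Binding intensity values are the highest Masliner-normalised natural-log median intensity among replicate spots of either probe orientation. The binding step lasted 1 h in 1× PBS with 1% milk, 0.2 mg/ml BSA, 0.5% salmon testes DNA and 0.03% Triton X-100, using GST-tagged P. falciparum DNA-binding domains expressed in E. coli on an Agilent 4 × 180k array of primer-extended double-stranded 36-bp intergenic genomic probes plus negative controls. Alexa488 anti-GST antibody and a 488 nm scan detected bound protein.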
With “AAGGTATAATATATTTGTACATATACATTTTTGAAT [XGTACX_site6493]”, the “gcPBM binding intensity (ln)” value stood at 6.46.
Take “GATTTTAATGGGTGTACACATTTATTTATATAAAGT [CACACA_site5317]”: the “gcPBM binding intensity (ln)” value came out at 6.66.
In the case of “TGAAAAATGTAATGCTCACACATATATATATATATA [CACACA_site5213]”, the “gcPBM binding intensity (ln)” value turned out to be 9.47.
Turning to “ATGTGTATATATATGTGTACATAATTTGTGTTATTC [XGTACX_site2509]”, the “gcPBM binding intensity (ln)” value worked out at 6.94.
With “TATCCCCTTGTCCATATTAATTGTGACATCATATAT [XGTACX_negctrl_site9]” the figure was 7.25; with “TATTTTTTATTTTAAATCCTCTGATATTTAATTTGT [TGCATGCA_negctrl_site84]”, 6.21; with “ATTTATGTTAATAAGTGTACAATAAATTTTTTTTAT [XGTACX_site7658]”, 6.14.
As for “AACATATATAAATACACACACATATATATATGAAAT [CACACA_site4312]”, the “gcPBM binding intensity (ln)” value came out at 6.77.
TATTAATTTAAATGGGTGCAAAACCTATATAAATAT: the “gcPBM binding intensity (ln)” value came to 9.35.
Consider “AAAATGTCCCGTAGAAAATAAATTTATTACGCAATA [CACACA_negctrl_site1564]”, for which the “gcPBM binding intensity (ln)” value stood at 6.5.
The figure for “TAGGTGCCTTTTTTCACACACATGTCAACTAAATAT [CACACA_site2656]” is 6.9; for “ATATTTAGGAAAAATAGTACACATTTAAATAATAAT [XGTACX_site7989]” it is 6.67; for “CTTTAAATTAATAAAAGTACATTATTTATATATTTT [XGTACX_site4808]” it is 6.17.
Regarding “AAATATATATATATATATATAAATATATACATATAT [TGCATGCA_negctrl_site517]”, the “gcPBM binding intensity (ln)” value worked out at 6.5.
Regarding “ATATTTTATTTTAATACACACAAGTTATATAACCAC [CACACA_site6508]”, the “gcPBM binding intensity (ln)” value is 6.88.
For the sequence “TACATATATATATATGTACACACATTAATAAAAAAA [CACACA_site9058]”, the “gcPBM binding intensity (ln)” value amounted to 6.75.
With “ATAACAAAAAAAAAGGTGCTACAAAATGAATAAAAA [GTGCAC_site9659]”, the “gcPBM binding intensity (ln)” value stood at 6.59.
The figure for “AATATAAATAATTATACACACTTAATATATATATAC [CACACA_site5533]” is 6.53; for “GTTTGAATGGCGCACTGTACACATATATACATATAG [XGTACX_site8619]” it is 7.36; for “ACAAAATTATGTAGATGTACAGACATAGAAAGAGAT [XGTACX_site3096]” it is 7.11.
The figure for “ATTTATGAAAAATGTACACACATCAAATGCTTATAT [CACACA_site4068]” is 6.78.
Turning to “TTATGGTGCAACATTATGCACACCGTTAAATAACTA [CACACA_site3846]”, the “gcPBM binding intensity (ln)” value was 11.4.
The figure for “ATTTATTTTGTTGTTGTTTTTATTTGATTGTTTTAT [CACACA_negctrl_site1275]” is 6.89; for “TTATTTTATTTTTGTGCACACTGATAAATTGAAAAG [CACACA_site2949]” it is 11.2; for “CGTTTTCTATATCATTGTACATATTCATGTGTAAAT [XGTACX_site2741]” it is 6.41.
For the sequence “AACAGACGAAGACACACACACATATATATATATATA [CACACA_site1020]”, the “gcPBM binding intensity (ln)” value turned out to be 9.28.
The figure for “TAAAAGTTCACCTGTACACACATATAAATATGTACA [CACACA_site6901]” is 6.44.
For the sequence “ATTAATAAATTCAATTGTACTTGTTTATACATAAAA [XGTACX_site3733]”, the “gcPBM binding intensity (ln)” value turned out to be 6.53.
As for “AAAATTAACCGTAACACACACACATATAAATATGTA [CACACA_site7791]”, the “gcPBM binding intensity (ln)” value worked out at 6.55.
With “TTGTTTAAGTCACGAACACACATATATCATCAATTT [CACACA_site986]” the figure was 6.52; with “CAATAAAGAGGGAATTGTACTTTAAATATCCCTCTT [XGTACX_site1991]”, 5.89.
On to “AAAATAAAATAAAATACACACATACATACATACAAA [CACACA_site5366]”, for which the “gcPBM binding intensity (ln)” value came out at 6.89.
In the case of “ATATATCACAATAAAATTTATAGAATTTTAAATAAG [TGCATGCA_negctrl_site437]”, the “gcPBM binding intensity (ln)” value amounted to 6.23.
Regarding “AATATATTTCGAGATACACACATATATAAAAAAAAA [CACACA_site3398]”, the “gcPBM binding intensity (ln)” value was determined as 6.67.
The figure for “AAAAAAAAAAAAAAGACACACAATGTGAAATAATAA [CACACA_site804]” is 6.32; for “AATAGAACAAATAAAACACACACATATATATATATA [CACACA_site8893]” it is 9.36.
Turning to “TATATAGAAAACAAGGCATGCAAATAACAAATTGTG [TGCATGCA_site473]”, the “gcPBM binding intensity (ln)” value came to 7.33.
The figure for “ATATAATATATGTAAGTGCGCTTATAAATAAAACGA [GTGCAC_site9841]” is 6.78; for “ATATATTGATATATGTGTACATAGCTTATTTCATTT [XGTACX_site1800]” it is 6.43; for “TTTTTAATTATTTATATAACGATAATCCTTACATAA [TGCATGCA_negctrl_site180]” it is 6.14.
In the case of “AAAAAAAAAAAAAAAGTGCACTGAAAATATATTGAA [GTGCAC_site9395]”, the “gcPBM binding intensity (ln)” value turned out to be 10.
As to “AACAAAAATGAAAAAACACACATAACATATATAAAT [CACACA_site740]”, the “gcPBM binding intensity (ln)” value worked out at 7.11.
As for “ATAATATAAATAAAAACACACACAATCGTACATATA [CACACA_site9223]”, the “gcPBM binding intensity (ln)” value came out at 7.02.
Take “ATAGTAAATATAAAAAGTACTGATTCTTAAATTGTT [XGTACX_site5972]”: the “gcPBM binding intensity (ln)” value is 6.47.
